Assay results published in PubChem BioAssay AID1508624 (National Center for Advancing Translational Sciences (NCATS), 2021).
In all, about 48,000 compounds went through this assay and about 120 (0.25%) were called active. About 4% were inconclusive and are not listed. The call rests on the fitted dose curve; in most records, active means well fitted activation curve with a large enough effect; inconclusive means small, poorly fitted or top-dose-only effect, or another doubt; inactive means no such curve, though single readings can be large or run the other way. The list shows a part of the results.

Test: Primary qHTS for Identification of Small Molecule Activators of Huntingtin-Antisense Promoter Activity; further: nearly all actives have a fitted effect of over 55% in size
Conditions: HEK293 HTT-AS promoter firefly luciferase reporter, 24 h; series mostly up to 57.5 µM; activity change, positive = activation: at the top concentration
Outline: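 Firefly luciferase readout (Dual-Glo, 10 min RT) after 24 h, 37 °C compound exposure (final up to 57.5 uM) of HEK293 reporter cells cultured 24 h beforehand; PTC124 at 50 uM final as control inhibitor; activity scaled vehicle 0%, zero RLU -100%.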

Activity change, positive = activation, inactive:
COc1ccc2c(c1)c1c(c(=O)n(-c3ccc(C)cc3)c(=O)n1CC(=O)N1CCCC1)n2C -11.5%
CCC12CN3CC(C)(CN(C1)C3c1ccccc1C)C2=O (stereo unspecified) 12.1%
CCOC(=O)C1=C[C@@H](OC(CC)CC)[C@H](NC(C)=O)[C@@H](N)C1 -12.9%
Cc1ccccc1-c1nc2cc(NC(=O)c3cccc(OCCC(C)C)c3)ccc2o1 0.674%
CCOC(=O)N1CCC(NC(=O)c2ccc3c(c2)N(Cc2ccccc2)C(=O)c2ccccc2S3=O)CC1 (stereo unspecified) -11%
CCCCN(Cc1ccccc1)S(=O)(=O)c1cc(Br)cc2c1N(C(=O)C1CC1)CC2 -32.4%
COc1cc(NC(=O)c2ccc(-c3nc(COc4ccccc4)c(C)o3)cc2)cc(OC)c1 -47.8%
O=C(CSc1nnc(CNC(=O)c2ccccc2F)n1-c1ccccc1)Nc1ccccc1F -15%
CCCNC(=O)CCn1nc(-c2ccccc2)c2ccccc2c1=O 6.11% [at 11.5 µM, percent change from vehicle, -100% = no light]
O=C(CCc1nnc2n(Cc3ccccc3Cl)c(=O)c3ccccc3n12)Nc1ccc(F)cc1 -6.89%
CC(=O)C1=C(c2ccc(Cl)c(Cl)c2)N(C(C)=O)n2c(nnc2C2CCCCC2)S1 5.21%
CCC(Cn1nnc2ccccc2c1=O)NC(=O)Nc1ccc(C)cc1 (stereo unspecified) -3.98%
CCOc1ccc(OCC)c(NC(=O)c2cc(CN3CCOCC3)on2)c1 -5.35%
COc1cccc(CNC(=O)C(NS(=O)(=O)c2cccs2)C(C)C)c1 (stereo unspecified) -7.34%
COc1cccc(CNC(=O)c2ccc3nc(N4CCCCC4)sc3c2)c1OC -4.53%
Cc1ccc(CN2CCSc3ccc(C(=O)N4CCN(c5ccc(Cl)cc5)CC4)cc32)cc1 -35.5%
COc1ccccc1NC(=O)c1cc(S(=O)(=O)NCCc2ccccc2)ccc1F -5.83%
O=c1c2cccnc2n(Cc2ccccc2F)c(=O)n1Cc1ccc(F)cc1 -19.8%
CCCCN1C(=O)c2[nH]nc(-c3ccccc3O)c2C1c1cc(Br)c(O)c(OC)c1 (stereo unspecified) -39.4%
C[C@]12CCC(=O)C=C1CC[C@@H]1[C@@H]2[C@@H](O)C[C@@]2(C)[C@H]1CC[C@]2(O)C(=O)CO -6.48%
COc1ccc(NC(=O)Cn2c3ncccc3c(=O)n2-c2ccc(C)c(C)c2)c(OC)c1 -9.52%
O=S(=O)(Nc1ccc2nc(-c3ccc(F)cc3)oc2c1)c1ccccc1 4.62%
CCOCCCNC(=O)C(c1ccc(OC)cc1)N(Cc1ccc2c(c1)OCO2)C(=O)c1ccc(NC(C)=O)cc1 (stereo unspecified) -2.49%
CCCCc1nn2c(=O)cc(COC(=O)c3ccc(NC(=O)c4ccccc4Cl)cc3)nc2s1 11.9%
COc1ccc(-n2cc(C(=O)OCc3ccc(F)c(F)c3)c3ccccc3c2=O)cc1 -18.6%
CCc1ccc(NS(=O)(=O)c2ccc3[nH]cc(C(=O)NCCc4cccc(C)c4)c(=O)c3c2)cc1 -11.5%
O=C(NC1(C(F)(F)F)C(=O)Nc2c1c(=O)[nH]c(=O)n2-c1ccc(F)cc1)c1ccccc1 (stereo unspecified) 10.6%
COc1ccc(C2C(=O)N(C3CCCCC3)CC(=O)N2CCC2=CCCCC2)cc1 (stereo unspecified) -29.6%
CCOc1ccc(-n2c(=O)c3sc4ccccc4c3n(Cc3cccc(C)c3)c2=O)cc1 1.72%
Cc1cccc(N2CCN(C(=O)CCc3c(C)nc4c(c3C)c(=O)n(C)c(=O)n4C)CC2)c1C -16.2%
Cc1ccc(OC(=O)c2cc(-c3ccc(Cl)cc3)on2)c(C)c1 -6.42%
CC1CCC(NC(=O)c2ccc3c(c2)N(Cc2ccccc2F)C(=O)c2ccccc2S3=O)CC1 (stereo unspecified) 17.6%
CCOc1ccc(CCNC(=O)Cn2ncn3c(cc4sc(C)cc43)c2=O)cc1OCC -2.74%
O=C(NCc1ccccc1)C(=O)NCC(c1ccc2c(c1)OCO2)N1CCOCC1 (stereo unspecified) -12.4%
COc1ccc2c(c1)sc1ncc(C(=O)NCc3ccc(Cl)cc3)c(=O)n12 -1.27%
Cc1ccc2c(c1)C(=O)OC(C(=O)Nc1ncc(Cc3ccccc3Cl)s1)C2 (stereo unspecified) -6.83%
Cc1ccc(-c2cc(-c3ccc4c(c3)NC(=O)CO4)nc3c2COc2ccccc2-3)cc1 -7.63%
COc1ccc2c(c1)c1c(c(=O)n(-c3ccc(F)c(Cl)c3)c(=O)n1Cc1cccc(C)c1)n2C -9.78%
CCOc1ccc2c(c1)c(=O)c(C(=O)c1ccccc1)cn2Cc1ccccc1 -0.452%
Cc1ccc(C(=O)Nc2c(C(=O)NC(C)(C)C)oc3ccccc23)cc1 -13.5%
CCCS(=O)(=O)c1nc(S(=O)(=O)c2ccc(C)cc2)c(N(CC)CC)s1 -12.8%
CCOC(=O)c1ccc(NC(=O)CSc2c(C(C)C)cnc3c2c(=O)n(C)c(=O)n3C)cc1 -17.1%
Cc1cc(C)c2c(CC(=O)Nc3ccc(F)cc3)coc2c1 -13.7%
Cc1ccc(-n2nc(C)c3nc(CCC(=O)Nc4cccc(C)c4C)c(=O)n(C)c32)cc1 -10.5%
COc1ccc(CNC(=O)Cn2nc3c(cc2=O)CCCC3)cc1 -5.48%
Cc1cccc(N2C(=O)N(Cc3cc(=O)n4ccccc4n3)c3ccccc3S2(=O)=O)c1 -17.5%
Cc1nnc(NC(=O)CSc2nc3c([nH]c4ccccc43)c(=O)n2-c2ccc(Cl)cc2)s1 -33.3%
Cc1ccc2[nH]c(=O)c3cc(C(=O)N(C)c4ccc(Br)cc4)sc3c2c1 -5.81%
CC(=O)Nc1cc(C(=O)NCc2ccccc2Cl)ccc1Sc1ccc(F)cc1 -17.2%
Cc1ccc(NC(=O)c2cc(S(=O)(=O)N3CCCCC3)c[nH]2)cc1N(C)C -1.29%
Cc1cc(C)cc(NC(=O)c2cc(S(=O)(=O)NCCC3=CCCCC3)ccc2F)c1 -22%
Cc1cccc(C(=O)Nc2ccc3oc(-c4cccc5c(Br)cccc45)nc3c2)c1 1.25%
CCc1ccc(NC(=O)C2CCN(c3nc(-c4ccc(OC)cc4)no3)CC2)cc1 -48.3%
CCOc1ccc2nc(N3CCN(C(=O)c4ccc5c(c4)CCCC5)CC3)sc2c1 -9.29%
Cc1cc(OCC(=O)Nc2ccc(C(=O)OC3CCCCC3)cc2)cc(C)c1Cl -13.9%
COc1ccc(CCNCc2c(C(=O)O)c(C)n(Cc3c(F)cccc3Cl)c2C)cc1OC -7.44%
COc1ccc2c(c1)CC(C(=O)NCc1ccc(F)cc1)CO2 (stereo unspecified) -11%
Clc1ccc2c(c1)Nc1ccccc1S2 -1.04%
COc1cc(C(=O)NCCCc2nc3ccccc3n2CC(C)C)cc(OC)c1OC -13.9%
O=C(C1CCN(S(=O)(=O)c2ccc(Br)s2)CC1)N1CCN(c2cccc(Cl)c2)CC1 -29.6%
Cc1ccc(Sc2c(C)nn(C(=O)COc3ccccc3Br)c2C)cc1 -41.7%
CCOc1ccc(CCNC(=O)c2sc3nc4n(c(=O)c3c2C)CCCC4)cc1OCC -5.2%
CCOC(=O)c1ccc(NC(=O)CCn2c(=O)c3cccn3c3ccccc32)cc1 -2.7%
COc1ccc(-n2c(SCC(=O)Nc3ccc(Cl)c(C)c3)nc3n[nH]c(C)c3c2=N)cc1 -29.5%
NC(=O)c1c(NC(=O)c2nc(SCc3ccccc3F)ncc2Cl)sc2c1CCCC2 13.5%
CCOC(=O)c1c(NC(=O)c2ccc(S(=O)(=O)N3CCC(C)CC3)cc2)sc2c1CCN(C)C2 -61.3%
CCOC(=O)c1sc2ncn(CC(=O)Nc3ccc(N(C)C)cc3)c(=O)c2c1C -11%
Cc1cc(C)cc(-n2ccnc2SCC(=O)Nc2nnc(C)s2)c1 -34.3%
O=C(Nc1nc2ccc(S(=O)(=O)N3CCCC3)cc2s1)c1cccc(F)c1 -3.02%
COc1ccc(OC)c(CNC(=O)c2nn(-c3ccc(OC)c(Cl)c3)c(=O)c3c2c2ccccc2n3C)c1 -3.53%
CCCCn1cc(S(=O)(=O)c2ccc(C)c(C)c2)c(=O)c2cc(F)c(N3CCCC(C)C3)cc21 (stereo unspecified) -4.16%
CCS(=O)(=O)N1CCc2cc(C(=O)Nc3ccc(OC)c(Cl)c3)ccc21 -22.5%
CCOc1ccc2nc(N3CCCC(C(=O)Nc4c(C)cccc4C)C3)sc2c1 (stereo unspecified) 29.5%
COC(=O)c1nc2n(n1)C(c1cccc(Cl)c1)C(C(=O)Nc1ccccc1OC)=C(C)N2 (stereo unspecified) -8.74%
Cc1cccc(C)c1NC(=O)C(NS(=O)(=O)c1ccc2c(c1)CCC(=O)N2)c1ccccc1 (stereo unspecified) 14.2%
Cc1c2cnn(-c3ccccc3)c(=O)c2c(C)n1CCCC(=O)Nc1cc(F)ccc1F -14.1%
CCc1ccc(CNC(=O)CN2C(=O)c3cccnc3Oc3ccc(Cl)cc32)cc1 -22.2%
O=C(CSc1nc2ccccc2nc1Cc1ccc(Cl)cc1)N1CCc2ccccc21 -7.3%
CCN(c1cccc(C)c1)S(=O)(=O)c1nnc(NC(=O)C2CCCCC2)s1 -11.2%
O=C(CSC1=Nc2ccccc2C2=NC(CC(=O)NC3CCCCC3)C(=O)N12)Nc1ccc(F)cc1 (stereo unspecified) -23.8%
CCOc1ccc(NC(=O)CSc2ncc3c(n2)-c2ccc(Cl)cc2N(Cc2ccccc2)S3(=O)=O)cc1 -0.46%
COc1ccc(-c2nc3sc(CCNC(=O)c4cc(OC)c(OC)c(OC)c4)c(C)n3n2)cc1 2.63%
COc1ccc(C)cc1NC(=O)c1oc2ccc(S(=O)(=O)N3CCCCC3)cc2c1C 15.3%
Cc1ccc(C)c(N2CCN(S(=O)(=O)c3cc(Br)cc4c3N(C(=O)C3CC3)CC4)CC2)c1 -3.28%
CCOc1ccc(C2c3[nH]c4ccccc4c3CCN2C(=O)CCc2ccccc2)cc1 (stereo unspecified) -23.5%
Cn1c(=O)c(=O)n(C)c2cc(N3CCOCC3)c(NS(=O)(=O)c3ccc(Cl)cc3)cc21 -13.4%
COC(=O)c1scc(-c2ccc(C)cc2)c1S(=O)(=O)Nc1cc(Cl)ccc1C -35.6%
CCc1ccc(S(=O)(=O)c2cn(CC(=O)Nc3ccc(C)cc3)c3ccccc3c2=O)cc1 -12.9%
CCOC(=O)c1[nH]c2c(c1Cc1ccccc1)C(=O)CC(c1ccc(Cl)cc1)C2 (stereo unspecified) -21.1%
COc1cccc(C(c2sc3nc(-c4ccco4)nn3c2O)N2CCC(O)CC2)c1 (stereo unspecified) -0.321%
CCOc1ccc(CCNC(=O)c2ccc3c(Cl)c4c(nc3c2)CCCC4)cc1 -22.6%
